# The other results are listed elsewhere or left out.
# Tests used:
# Assay in all cases: glycan array binding signal (z-score within array); higher = stronger binding
# Details in all cases: glycan notation: IUPAC condensed, linker removed
# [1] = molecular target: Neu5Ac(a2-3)Gal(b1-4)GlcNAc(b1-6)GalNAc
# How it was run: (§1)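 The Consortium for Functional Glycomics database supplied 3228 glycan arrays, of which those lacking an available protein sequence were dropped. The binding signal, a within-array Z-score, was averaged across arrays of the same protein sequence and across linkers. Negative scores can be read as non-binding.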
# [2] = molecular target: Neu5Ac(a2-3)Gal(b1-4)GlcNAc(b1-6)[Gal(b1-3)]GalNAc
# How it was run: as §1
# [3] = molecular target: Neu5Ac(a2-3)Gal(b1-4)GlcNAc(b1-6)[Neu5Ac(a2-3)Gal(b1-3)]GalNAc
# How it was run: as §1
# [4] = molecular target: Neu5Ac(a2-3)Gal(b1-4)GlcNAc6S
# How it was run: as §1
# [5] = molecular target: Neu5Ac(a2-3)Gal(b1-4)[Fuc(a1-3)]GlcNAc
# How it was run: as §1
# [6] = molecular target: Neu5Ac(a2-3)Gal(b1-4)[Fuc(a1-3)]GlcNAc(b1-2)Man
# How it was run: as §1
# [7] = molecular target: Neu5Ac(a2-3)Gal(b1-4)[Fuc(a1-3)]GlcNAc(b1-3)Gal
# How it was run: as §1
# [8] = molecular target: Neu5Ac(a2-3)Gal(b1-4)[Fuc(a1-3)]GlcNAc(b1-3)Gal(b1-4)GlcNAc
# How it was run: as §1
# [9] = molecular target: Neu5Ac(a2-3)Gal(b1-4)[Fuc(a1-3)]GlcNAc(b1-3)Gal(b1-4)[Fuc(a1-3)]GlcNAc(b1-3)Gal(b1-4)[Fuc(a1-3)]GlcNAc
# How it was run: as §1
# [10] = molecular target: Neu5Ac(a2-3)Gal(b1-4)[Fuc(a1-3)]GlcNAc(b1-3)GalNAc
# How it was run: as §1
# [11] = molecular target: Neu5Ac(a2-3)Gal(b1-4)[Fuc(a1-3)]GlcNAc(b1-6)[Gal(b1-3)]GalNAc
# How it was run: as §1
# [12] = molecular target: Neu5Ac(a2-3)Gal(b1-4)[Fuc(a1-3)]GlcNAc(b1-6)[Neu5Ac(a2-3)Gal(b1-3)]GalNAc
# How it was run: as §1
# [13] = molecular target: Neu5Ac(a2-3)Gal(b1-4)[Fuc(a1-3)]GlcNAc6S
# How it was run: as §1
# [14] = molecular target: Neu5Ac(a2-3)Gal6S(b1-4)GlcNAc
# How it was run: as §1
# [15] = molecular target: Neu5Ac(a2-3)Gal6S(b1-4)[Fuc(a1-3)]GlcNAc
# How it was run: as §1
# [16] = molecular target: Neu5Ac(a2-3)GalNAc
# How it was run: as §1
# [17] = molecular target: Neu5Ac(a2-3)GalNAc(b1-4)GlcNAc
# How it was run: as §1
# [18] = molecular target: Neu5Ac(a2-3)[GalNAc(b1-4)]Gal(b1-4)Glc
# How it was run: as §1
# [19] = molecular target: Neu5Ac(a2-3)[GalNAc(b1-4)]Gal(b1-4)GlcNAc
# How it was run: as §1
# [20] = molecular target: Neu5Ac(a2-3)[GalNAc(b1-4)]Gal(b1-4)GlcNAc(b1-3)GalNAc
# How it was run: as §1
# [21] = molecular target: Neu5Ac(a2-3)[Neu5Ac(a2-6)]GalNAc
# How it was run: as §1
# [22] = molecular target: Neu5Ac(a2-6)Gal
# How it was run: as §1
# [23] = molecular target: Neu5Ac(a2-6)Gal(b1-3)GlcNAc(b1-3)[Gal(b1-4)GlcNAc(b1-6)]Gal(b1-4)Glc
# How it was run: as §1
# [24] = molecular target: Neu5Ac(a2-6)Gal(b1-4)Glc
# How it was run: as §1
# [25] = molecular target: Neu5Ac(a2-6)Gal(b1-4)GlcNAc
# How it was run: as §1
# [26] = molecular target: Neu5Ac(a2-6)Gal(b1-4)GlcNAc(b1-2)Man
# How it was run: as §1
# [27] = molecular target: Neu5Ac(a2-6)Gal(b1-4)GlcNAc(b1-2)Man(a1-3)Man(b1-4)GlcNAc(b1-4)GlcNAc
# How it was run: as §1
# [28] = molecular target: Neu5Ac(a2-6)Gal(b1-4)GlcNAc(b1-2)Man(a1-3)[Gal(b1-4)GlcNAc(b1-2)Man(a1-6)]Man(b1-4)GlcNAc(b1-4)GlcNAc
# How it was run: as §1
# [29] = molecular target: Neu5Ac(a2-6)Gal(b1-4)GlcNAc(b1-2)Man(a1-3)[GlcNAc(b1-2)Man(a1-6)]Man(b1-4)GlcNAc(b1-4)GlcNAc
# How it was run: as §1
# [30] = molecular target: Neu5Ac(a2-6)Gal(b1-4)GlcNAc(b1-2)Man(a1-3)[GlcNAc(b1-4)][Neu5Ac(a2-6)Gal(b1-4)GlcNAc(b1-2)Man(a1-6)]Man(b1-4)GlcNAc(b1-4)GlcNAc
# How it was run: as §1
# [31] = molecular target: Neu5Ac(a2-6)Gal(b1-4)GlcNAc(b1-2)Man(a1-3)[Man(a1-6)]Man(b1-4)GlcNAc(b1-4)GlcNAc
# How it was run: as §1
binder,measurement,setting,value
Si Bti9 1b-V5-his (Solanum lycopersicum) (protein) MQCNRGCDLALASFYVWRGSNLTLISEMFSTSIADIVSYNNRDNIPNQDSVIAGTRINIPFRCDCLNDGEVLGHAFPYRVKSGDTYDLVARNYSDLTTAQWMMKFNSYPENNIPNTVNLSVVVNCSCGNSDVSKDFGLFVTYPVRAEDNLTSVASAANVSEDIIRRYNPAAVSILDIGQGIIYIPGRDRNGNFPPLPTSTDGLSGGAKKGGRADPAFLYKVVINSKLEGKPIPNPLLGLDSTRTGHHHHHH,glycan array binding signal (z-score),[1],-0.254
same,glycan array binding signal (z-score),[2],-0.108
same,glycan array binding signal (z-score),[3],-0.2
same,glycan array binding signal (z-score),[4],10.6
same,glycan array binding signal (z-score),[5],-0.288
same,glycan array binding signal (z-score),[6],-0.404
same,glycan array binding signal (z-score),[7],-0.323
same,glycan array binding signal (z-score),[8],-0.373
same,glycan array binding signal (z-score),[9],-0.328
same,glycan array binding signal (z-score),[10],-0.144
same,glycan array binding signal (z-score),[11],-0.108
same,glycan array binding signal (z-score),[12],-0.156
same,glycan array binding signal (z-score),[13],-0.237
same,glycan array binding signal (z-score),[14],-0.293
same,glycan array binding signal (z-score),[15],-0.449
same,glycan array binding signal (z-score),[16],-0.221
same,glycan array binding signal (z-score),[17],-0.306
same,glycan array binding signal (z-score),[18],-0.275
same,glycan array binding signal (z-score),[19],-0.24
same,glycan array binding signal (z-score),[20],0.153
same,glycan array binding signal (z-score),[21],-0.269
same,glycan array binding signal (z-score),[22],3.19
same,glycan array binding signal (z-score),[23],-0.275
same,glycan array binding signal (z-score),[24],-0.238
same,glycan array binding signal (z-score),[25],-0.164
same,glycan array binding signal (z-score),[26],-0.175
same,glycan array binding signal (z-score),[27],-0.363
same,glycan array binding signal (z-score),[28],-0.165
same,glycan array binding signal (z-score),[29],-0.274
same,glycan array binding signal (z-score),[30],-0.315
same,glycan array binding signal (z-score),[31],-0.162
